Source: PubChem BioAssay AID2675 (National Center for Advancing Translational Sciences (NCATS), 2010)
Out of some 280,000 compounds screened, about 100 (0.036%) were called active. The inconclusive results got no clear call from the source; some entries with a clear call stand among them for comparison. Calls follow the shape of the dose curve; as a rule, active = well fitted inhibition curve with a large enough effect in the signal ratio, with a control signal flat (not every such curve was filed as active); inconclusive = small, poorly fitted or top-dose-only effect, or effect the other way, or a change in a side signal; inactive = no such curve, though single readings can be large or run the other way; the % refers to the signal ratio. Potencies beside an inconclusive call are fits to weak or partial responses and may not hold up. A note “side channel” means that the fit belongs to a control or component signal, not to the main read-out.

Each compound was assayed against Muscleblind-like protein 1 (Homo sapiens) (UniProt Q9NR56) (assay: qHTS Assay for Inhibitors of MBNL1-poly(CUG) RNA binding). Conditions: TR-FRET MBNL1-His/biotin-(CUG)12 binding, 665/545 ratio; series mostly up to 57.5 µM.
Chain of UniProt Q9NR56 (Q9NR56 whole entry, looked up): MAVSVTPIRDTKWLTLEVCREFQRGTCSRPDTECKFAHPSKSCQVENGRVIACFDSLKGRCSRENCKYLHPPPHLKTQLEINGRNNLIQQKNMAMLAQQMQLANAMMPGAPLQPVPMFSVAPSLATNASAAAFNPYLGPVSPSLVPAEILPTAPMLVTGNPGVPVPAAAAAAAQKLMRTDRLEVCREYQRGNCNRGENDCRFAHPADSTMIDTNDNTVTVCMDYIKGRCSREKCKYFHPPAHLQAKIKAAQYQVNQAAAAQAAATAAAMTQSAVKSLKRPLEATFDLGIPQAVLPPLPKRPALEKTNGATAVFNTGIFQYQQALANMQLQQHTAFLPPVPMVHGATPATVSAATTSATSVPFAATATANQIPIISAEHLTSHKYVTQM
Method in brief: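 His-tagged MBNL1 binding to biotinylated (CUG)12 RNA was measured by TR-FRET using terbium anti-His antibody (0.055 ng/ul final) and streptavidin-XL665 (5 nM final). Compounds were titrated 92 nM to 58 uM; 60 min at room temperature.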
Potency is read from the fitted curve at half-maximal effect; tags tell the direction and shape of the fitted curve or compound fluorescence and quenching.

SMILES | Potency
COc1ccccc1CNC(=O)CCCNS(=O)(=O)c1cccc2nsnc12 | inconclusive: 7.94 µM [quencher, side channel, full curve]
Cc1ccc(N(Cc2cc(=O)[nH]c3ccccc23)C(=O)c2ccco2)cc1 | inactive
CCOC(=O)Cc1ncccc1C(=O)Nc1ccc(OC(F)(F)F)cc1 | inconclusive: 14.1 µM [quencher, side channel, partial curve]
Cc1oc2c(c1C(=O)O)C(=O)c1ccccc1C2=O | inconclusive: 11.2 µM [quencher, side channel, partial curve]
COc1ccc([N+](=O)[O-])cc1NC(=O)COC(=O)C1CC1 | inconclusive: 25.1 µM [quencher, side channel, partial curve]
Cc1ccccc1N=C/C=C1/C=C(c2ccccc2)OC(C)(C)O1 | inconclusive: 7.08 µM [quencher, side channel, single point]
COC(=O)c1cccc(Nc2nc(-c3cccnc3)nc3ccccc23)c1 | inactive
COc1ccc(-c2[nH]nc3c2C(c2ccncc2)C(C#N)=C(N)O3)cc1 (stereo not given) | inconclusive: 28.2 µM [quencher, side channel, single point]
O=C(CNc1ccccc1)N/N=C/c1ccc([N+](=O)[O-])o1 | inconclusive: 14.1 µM [quencher, side channel, partial curve]
COc1cc(/C=C(\C#N)c2nc3ccccc3o2)ccc1O | inconclusive: 35.5 µM [quencher, side channel, partial curve]
Cc1onc(-c2ccc(Cl)cc2)c1-c1ccnc(SCC(=O)Nc2cc(Cl)cc(Cl)c2)n1 | inactive
O=C(O)CCCC(=O)N1N=C(c2ccccc2)CC1c1ccc2c(c1)OCO2 (stereo not given) | inactive
O=C(O)c1ccccc1C(=O)c1ccc(-c2ccccc2)cc1 | inactive
O=C1NC2(CCCCCC2)C(=O)N1Cc1ccc([N+](=O)[O-])cc1 | inconclusive: 28.2 µM [quencher, side channel, single point]
CC(C)n1nccc1NC(=O)Nc1ccccc1 | inconclusive: 200 µM [inhibitor, partial curve]
COc1ccc(-c2ccc(=O)n(CC(=O)Nc3ccc(C(=O)NC4CC4)cc3)n2)cc1OC | inconclusive: 15.8 µM [quencher, side channel, partial curve]
O=c1[nH]ncc(N/N=C\c2ccc(O)cc2O)c1Cl | inconclusive: 39.8 µM [quencher, single point]
CCc1nc(N)c(C#N)c(-c2cccnc2)c1C | inactive
CN(Cc1cccs1)C(=O)Cn1cnc2cc([N+](=O)[O-])ccc2c1=O | inconclusive: 12.6 µM [quencher, side channel, partial curve]
O=C(O)c1ccc(NS(=O)(=O)c2cccc(C(=O)Nc3ccc([N+](=O)[O-])cc3)c2)cc1 | inconclusive: 25.1 µM [quencher, side channel, single point]

SMILES | Potency
COc1cc(C)c(S(=O)(=O)n2c([N+](=O)[O-])cnc2C)cc1C | inconclusive: 3.55 µM [inhibitor, full curve, poor fit]
Brc1ccccc1OCCNCc1ccccc1 | inactive
CCOC(=O)N1CCN(c2c(N3CCN(c4ccccc4OC)CC3)c(=O)c2=O)CC1 | inconclusive: 28.2 µM [quencher, side channel, single point]
C/C(=N\NC(=O)c1ccc(CN2CCOCC2)cc1)c1cccc([N+](=O)[O-])c1 | inconclusive: 17.8 µM [quencher, side channel, partial curve]
O=C(Nc1ccccc1Cc1ccccc1)c1oc2ccccc2c1COc1ccccc1 | inactive
O=C(Nc1cccc(F)c1)NC1(C(=O)N2CCN3CCCC3C2)CCCCC1 (stereo not given) | inconclusive: 3.16 µM [quencher, side channel, single point]
Cc1[nH]c2ccccc2c1CCNC(=O)c1ccc2nccnc2c1 | inconclusive: 11.2 µM [quencher, side channel, partial curve]
C=C(C)C(=O)Nc1cccc(C2=NOC3(C2)C[C@@H](C(N)=O)N(C(=O)CCCCC)C3)c1 (stereo not given in full) | inactive
CCOC(=O)c1sc(=NC(=O)c2ccc(S(=O)(=O)N(C)c3ccccc3)cc2)n(C)c1C | inconclusive: 35.5 µM [fluorescent, side channel, single point]
COC(=O)CNc1nc(C2CC2)nc2c1nnn2Cc1ccccc1Cl | inactive
CC1CCN(C(=O)C2CCCCN2S(=O)(=O)c2cccc([N+](=O)[O-])c2)CC1 (stereo not given) | inconclusive: 15.8 µM [quencher, partial curve]
C=CCN(C)CC/C=C1\c2ccccc2CSc2ccccc21 | inactive
CCNC(=S)N/N=C/c1ccccc1[N+](=O)[O-] | inconclusive: 12.6 µM [quencher, side channel, partial curve]
CCOc1cc(CNc2ccc(O)cc2)ccc1OCc1ccc(Cl)cc1Cl | inconclusive: 0.1 µM [quencher, side channel, full curve, poor fit]
COc1ccc(CN2CCNC(=O)C2CC(=O)NC2CCC2)c(OC)c1 (stereo not given) | inactive
CCOC(=O)Cn1c(=NC(=O)C(C)C)sc2c(C)cc(C)cc21 | inconclusive: 39.8 µM [fluorescent, side channel, single point]
Cc1[nH]c(=O)[nH]c(=O)c1S(=O)(=O)N1CCCC(C(=O)N2CCC(Cc3ccccc3)CC2)C1 (stereo not given) | inconclusive: 3.55 µM [quencher, side channel, single point]
COc1ccc(CN(C)Cc2nc(Cc3cccc(F)c3)no2)c2cccnc12 | inactive
CCOC(=O)COc1cccc2c(=O)n(CC(=O)NCc3ccc4c(c3)OCO4)ccc12 | inconclusive: 3.16 µM [fluorescent, side channel, partial curve]
CCOC(=O)CSc1nc2ccc(C)cc2n2cnnc12 | inconclusive: 15.8 µM [quencher, single point]
